The whole screen tested about 310,000 compounds, of which about 2,200 (0.71%) showed an effect of 50% or more. The effect is printed as a negative number. Some of the results follow.

Sequence of human ether-à-go-go-related gene (hERG) potassium channel (Q12809 whole entry, looked up): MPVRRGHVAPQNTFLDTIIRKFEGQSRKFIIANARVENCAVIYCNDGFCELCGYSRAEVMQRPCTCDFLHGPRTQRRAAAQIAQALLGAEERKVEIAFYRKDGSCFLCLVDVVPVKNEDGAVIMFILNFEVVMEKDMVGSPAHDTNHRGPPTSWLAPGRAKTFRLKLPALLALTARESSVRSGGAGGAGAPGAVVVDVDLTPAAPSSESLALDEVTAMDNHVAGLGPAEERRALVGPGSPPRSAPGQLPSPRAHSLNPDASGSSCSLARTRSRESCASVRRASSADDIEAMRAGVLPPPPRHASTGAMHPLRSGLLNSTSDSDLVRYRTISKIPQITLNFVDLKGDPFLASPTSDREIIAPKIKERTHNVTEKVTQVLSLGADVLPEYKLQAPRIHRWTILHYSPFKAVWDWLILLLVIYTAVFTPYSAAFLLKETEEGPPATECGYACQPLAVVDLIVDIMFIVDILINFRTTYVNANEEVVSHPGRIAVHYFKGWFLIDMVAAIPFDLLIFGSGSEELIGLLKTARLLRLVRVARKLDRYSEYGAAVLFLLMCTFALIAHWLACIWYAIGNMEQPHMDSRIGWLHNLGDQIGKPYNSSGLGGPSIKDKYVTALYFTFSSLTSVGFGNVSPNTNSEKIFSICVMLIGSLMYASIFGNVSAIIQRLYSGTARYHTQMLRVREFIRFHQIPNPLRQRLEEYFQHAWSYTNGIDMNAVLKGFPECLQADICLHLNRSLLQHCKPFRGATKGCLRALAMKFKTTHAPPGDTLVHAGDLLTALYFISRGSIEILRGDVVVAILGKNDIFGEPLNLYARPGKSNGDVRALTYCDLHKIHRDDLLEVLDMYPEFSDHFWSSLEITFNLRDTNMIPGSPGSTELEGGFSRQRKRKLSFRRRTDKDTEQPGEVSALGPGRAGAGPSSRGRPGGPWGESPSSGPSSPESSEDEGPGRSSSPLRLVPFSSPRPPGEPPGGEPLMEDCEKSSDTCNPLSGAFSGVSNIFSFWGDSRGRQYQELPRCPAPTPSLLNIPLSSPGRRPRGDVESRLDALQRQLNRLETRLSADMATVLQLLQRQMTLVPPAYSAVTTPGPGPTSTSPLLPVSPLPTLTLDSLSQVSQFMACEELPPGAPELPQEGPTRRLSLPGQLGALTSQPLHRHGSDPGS

The test has as its target human ether-à-go-go-related gene (hERG) potassium channel (human, UniProt Q12809). The test is described as follows: primary screen, population patch clamp on CHO cells stably expressing hERG.
As to `Cc1nc2cc(NC(=O)Nc3ccc(Br)cc3)ccc2o1`, the “hERG current change (%, negative = inhibition) at 1uM” value was 8.23%.
For `CCSc1nc(C)nc2c1oc1ccccc12`, the “hERG current change (%, negative = inhibition) at 1uM” value is 12%.
Consider `CN(Cc1ccccc1NC(=O)c1ccc(S(=O)(=O)N(C)C)cc1)C1CCCCC1`, for which the “hERG current change (%, negative = inhibition) at 1uM” value is recorded as 24.7%.
The same measure for `Cc1ccc2[nH]cc(S(=O)(=O)c3ccc(C(C)C)cc3)c(=O)c2c1`: 13%.
For `COc1ccccc1N(CC(=O)NCCSc1ccccc1)S(=O)(=O)c1ccccc1`, the “hERG current change (%, negative = inhibition) at 1uM” value is 4.58%.
The same measure for `NS(=O)(=O)c1cnccc1Nc1ccc(Cl)cc1`: 7.8%; for `CCOC(=O)c1ccccc1N1C(=O)CSC1=S`: 11.9%; for `CN(NC1OC(=O)c2ccccc21)c1ccc(Cl)cc1[N+](=O)[O-]` (centres unmarked): 10.6%.
The figure for `Cc1ccccc1Oc1nc2c(C)cccn2c(=O)c1/C=C(\C#N)C(=O)Nc1c(C)n(C)n(-c2ccccc2)c1=O` is 9.52%; for `O=C(/C=C/c1cccc([N+](=O)[O-])c1)N1CCOCC1` it is -3.15%; for `Br.COc1ccc(C2=CSC3=NCCN23)cc1OC` it is 7.66%.
Regarding `COCCN(C(=O)CSc1nnc(-c2ccccc2C)n1C)c1c(N)n(Cc2ccccc2)c(=O)[nH]c1=O`, the “hERG current change (%, negative = inhibition) at 1uM” value is listed as 21.7%.
Turning to `Cc1ccc2c(c1)cc1c(=O)n(CC(=O)NCCN3CCCC3)nc(C)n12`, the “hERG current change (%, negative = inhibition) at 1uM” value is on record as 12.5%.
As for `Cc1c(-c2ccc(F)cc2)[n+](=O)c(-c2ccc(F)cc2)c(C)n1[O-]`, the “hERG current change (%, negative = inhibition) at 1uM” value came to 10.2%.
Regarding `Cc1csc(NC(=O)c2cc3c(C)nn(Cc4ccccc4Cl)c3s2)n1`, the “hERG current change (%, negative = inhibition) at 1uM” value turned out to be 8.47%.
As to `O=C(CSc1nc2ncccc2[nH]1)c1cccc([N+](=O)[O-])c1`, the “hERG current change (%, negative = inhibition) at 1uM” value is 8.27%.
The same measure for `OC(C[n+]1ccccc1)c1ccccc1.[Br-]` (centres unmarked): 18.6%; for `Cc1cc(-c2n[nH]c(=S)o2)c(C)n1-c1ccccc1`: -0.769%.
As for `COC(=O)[C@@H]1C[C@@]1(C)[C@@H](NP(=O)(c1ccccc1)c1ccccc1)c1ccccc1`, the “hERG current change (%, negative = inhibition) at 1uM” value was determined as 13.6%.
The same measure for `CN(C)c1ccnc(-n2cccc2/C=N/O)c1C#N`: 5.37%; for `CCOC(=O)C(=O)NC12CC3CC(CC(C3)C1)C2`: 28.7%; for `CC(=O)Nc1ccc(NC(=O)COC(=O)c2cnccn2)cc1`: 18.7%.
As for `COc1ccc(CN2CCCC(C(=O)c3ccc(Cl)cc3)C2)c(O)c1` (centres unmarked), the “hERG current change (%, negative = inhibition) at 1uM” value was -21.3%.
The same measure for `Cc1cc(N)ccc1S(C)(=O)=O`: 8.89%; for `Brc1ccc(-c2cn3nc4c(nc3n2)CCCC4)cc1`: -4.68%; for `COC(=O)c1ccc(CNC(=O)C2CCC(=O)N(CCCc3ccccc3)C2)cc1` (centres unmarked): 6.59%.
For `COc1ccc(S(=O)(=O)N2CCCCCC2)cc1NC(=O)c1ccccc1F`, the “hERG current change (%, negative = inhibition) at 1uM” value is 12%.
The same measure for `O=C(NCc1ccc2c(c1)OCO2)c1ccc(-n2cnnn2)cc1`: -7.33%; for `Cc1cc2cc(CN(CC3CCCO3)C(=S)Nc3ccccc3)c(=O)[nH]c2cc1C` (centres unmarked): -5.73%; for `CCCc1cc(C(=O)Nc2c(C)n(C)n(-c3ccccc3)c2=O)no1`: 6.05%.
For `Cc1nc2ccccc2n1CCOc1ccccc1`, the “hERG current change (%, negative = inhibition) at 1uM” value amounted to 11%.
For the compound `COc1ccccc1NC(=O)Cc1csc(NC(=S)Nc2ccccc2)n1`, the “hERG current change (%, negative = inhibition) at 1uM” value stood at 10%.
The figure for `CC1CCN(C(=O)C(C)Sc2nc(-c3ccccc3)cc(C(F)(F)F)n2)CC1` (centres unmarked) is 3.09%; for `CN1CCC(NC(=O)Nc2cccc(C(F)(F)F)c2)CC1` it is 10.7%; for `CCOP1(=O)C=C(C(C)(C)C)OC1c1ccc(F)cc1` (centres unmarked) it is 5.43%.
Take `COc1ccc(CC(=O)OC(C)C(=O)c2ccc(C)cc2)cc1` (centres unmarked): the “hERG current change (%, negative = inhibition) at 1uM” value came to 17%.
The same measure for `N#CC1=C(N)C2=CCCC[C@H]2[C@H](c2ccccc2)C1(C#N)C#N`: 8.49%.
The figure for `COc1cc(C(=O)NCc2nnc(SCC(=O)Nc3cc(C)cc(C)c3)o2)cc(OC)c1OC` is 13%.
The figure for `CCCCCCNC(=O)N[C@H](C(=O)NCCC[C@H]1CN2C(=NC[C@H]2C)N1CCC(c1ccccc1)c1ccccc1)C(C)O` (some centres unmarked) is 11.1%.
As for `O=C(Oc1ccc(Br)cc1C(=S)N1CCOCC1)c1ccc(F)cc1`, the “hERG current change (%, negative = inhibition) at 1uM” value amounted to 13.9%.
The figure for `O=C(CCCC1=NS(=O)(=O)c2ccccc2N1)N1CCN(c2ccccc2)CC1` is 8.63%; for `CCOC(=O)c1cnc(-n2nc(C)cc2C)nc1NCCO` it is 12.9%.
The figure for `CCOc1cc(S(=O)(=O)NCCCN2CCOCC2)ccc1F` is 8.13%.
For the compound `O=C(Nc1c(C(=O)N2CCCCC2)cnn1-c1ccccc1)c1ccccc1`, the “hERG current change (%, negative = inhibition) at 1uM” value is listed as 11.6%.
Take `CC1CCCCN1CCCNC(=O)Cn1ncc2c([nH]c3ccccc32)c1=O` (centres unmarked): the “hERG current change (%, negative = inhibition) at 1uM” value worked out at 25.8%.
The figure for `CCOC(=O)CN1CC23C=CC(O2)C(C(=O)Nc2ccc4c(c2)OCO4)C3C1=O` (centres unmarked) is 12.5%; for `CCOc1ccc(NCc2cccn2-c2nnc(N3CCC(C(=O)NCCCN4C(C)CCCC4C)CC3)s2)cc1` (centres unmarked) it is -5.16%.
The figure for `CNC(=O)c1cc(-c2ccc(Cl)cc2)n(-c2ccccc2)n1` is 13.8%; for `COCCN(C(=S)Nc1cccc(C)c1C)C(C)c1ccco1` (centres unmarked) it is 16.3%.
The same measure for `CCCC(c1nnnn1Cc1ccc(F)cc1)N1CCN(C)CC1` (centres unmarked): 7.54%.
`O=C1CN(C(=O)c2c(F)cccc2F)C(c2ccc(F)cc2)c2cc(F)ccc2N1` (centres unmarked): the “hERG current change (%, negative = inhibition) at 1uM” value amounted to 2.28%.
The figure for `CCc1nn(C)c(-c2n[nH]c(=S)n2N)c1Cl` is 6.24%; for `CN(C)c1ccc(NC(=O)CSc2nnc(C3CCCCC3)n2N)cc1` it is 15%.
Consider `CNc1nc(NCc2ccccc2)c2ccccc2n1.Cl`, for which the “hERG current change (%, negative = inhibition) at 1uM” value is on record as -27.2%.
Consider `COc1ccccc1NC(=O)Cn1c(=O)oc2ccccc21`, for which the “hERG current change (%, negative = inhibition) at 1uM” value amounted to 17%.
Take `Cc1cccc(NC(=O)CN(C2=NC3CS(=O)(=O)CC3S2)c2ccccc2F)c1` (centres unmarked): the “hERG current change (%, negative = inhibition) at 1uM” value is 18.3%.
Take `Nc1sc2c(c1C(=O)NC1CCS(=O)(=O)C1)CCCC2` (centres unmarked): the “hERG current change (%, negative = inhibition) at 1uM” value was 18.9%.
The same measure for `O=C(NCc1ccc(F)cc1)c1cc(S(=O)(=O)N2CCCCC2)ccc1N1CCOCC1`: -0.311%.
Turning to `COc1ccccc1NC(=O)CCN1C(=O)C2CC=C(Cl)CC2C1=O` (centres unmarked), the “hERG current change (%, negative = inhibition) at 1uM” value stood at 6.44%.
The same measure for `Cc1cccc(N2CCN(C(=O)Cc3ccc(-n4c(=O)[nH]c5ccsc5c4=O)cc3)CC2)c1C`: -3.57%; for `C=CCNC(=O)CN1N=C(c2ccc(C)cc2)CCC1=O`: -2.85%.
With `Cc1ccsc1/C=C1/CN(C)Cc2c1nc1ccccc1c2C(=O)O.Cl`, the “hERG current change (%, negative = inhibition) at 1uM” value was found to be 21.8%.
The same measure for `O=S(=O)(c1ccc(Br)cc1)N1CCN(Cc2ccco2)CC1`: 10.6%; for `N#CCSc1nc2ccccc2c(=O)n1CC1CCCC1`: 18.9%.
Turning to `CCOC(=O)C1(CC2CCCCO2)CCN(C(=O)NCc2ccccc2)CC1` (centres unmarked), the “hERG current change (%, negative = inhibition) at 1uM” value stood at 6.92%.
The figure for `Cc1ccc(S(=O)(=O)c2ccc(Oc3cccc(C)c3)cc2)cc1` is 7.07%; for `Cc1cc(C)n(CCCNC(=O)c2cc(COc3ccc(C)c(C)c3)on2)n1` it is -18.8%; for `CN1CCN(Cc2nc3c(c(=O)[nH]c(=O)n3C)n2Cc2c(F)cccc2Cl)CC1` it is 4.86%.
Take `O=C(CSCc1ccc([N+](=O)[O-])cc1)N/N=C/c1cccnc1`: the “hERG current change (%, negative = inhibition) at 1uM” value is -11.8%.
On to `Cc1c(NC(=O)C(C)OC(=O)c2c3c(nc4ccccc24)CCC(C)C3)c(=O)n(-c2ccccc2)n1C` (centres unmarked), for which the “hERG current change (%, negative = inhibition) at 1uM” value was 3.95%.
Turning to `COc1cccc(CC2(CO)CCN(Cc3cnc(-c4cccc(C)c4)nc3)CC2)c1`, the “hERG current change (%, negative = inhibition) at 1uM” value is 13%.
In the case of `O=C(CSc1nc2ccccc2s1)N1CCOCC1`, the “hERG current change (%, negative = inhibition) at 1uM” value is 19.4%.
The same measure for `O=C(CCN1C(=O)/C(=C/c2cccs2)SC1=S)Nc1cccc(O)c1`: 9.66%; for `COc1ccc(CNC(=O)Cn2nc(C(F)(F)F)c3c2CCC3)cc1`: 4.62%; for `CC(NC(=O)CN(c1cccc(C(F)(F)F)c1)S(C)(=O)=O)c1ccccc1` (centres unmarked): 9.7%.
For `CCn1c(COc2cccc(OC)c2)nnc1SCC(=O)Nc1cc(OC)ccc1OC`, the “hERG current change (%, negative = inhibition) at 1uM” value is on record as 6.48%.
As to `COCCN(CCOC)Cc1c(C)[nH]c2ccccc2c1=O`, the “hERG current change (%, negative = inhibition) at 1uM” value is -3.73%.
The same measure for `O=C(CCc1ccccc1)NCCc1cccs1`: -7.9%; for `C=CCN1C(=O)/C(=C\c2ccc(Cl)cc2)N=C1SCC(=O)NCCC`: 10.9%; for `CC(=O)OC1OCCOC1NC(=S)NCc1ccco1` (centres unmarked): 8.92%.
The figure for `CCOCCCNC(c1ccccc1)c1ccncc1` (centres unmarked) is 15.3%.
For the compound `Cn1nccc1C(=O)N1CCOCC1`, the “hERG current change (%, negative = inhibition) at 1uM” value came to 4.19%.
In the case of `CN(c1ccc(C(=O)NC2CC2)cc1)S(=O)(=O)c1ccccc1`, the “hERG current change (%, negative = inhibition) at 1uM” value amounted to 9.54%.
The same measure for `Cc1c(NC(=O)C(C)N2C(=O)NC3(CCC(C)CC3)C2=O)c(=O)n(-c2ccccc2)n1C` (centres unmarked): 14.3%; for `Oc1ccc(/C=N/Nc2nc(-c3cccnc3)nc3ccccc23)c(O)c1`: -4.55%; for `CC(CNC(=O)c1ccccc1Cl)NC(=O)c1ccccc1Cl` (centres unmarked): 12.3%.
With `Cc1ccc(NC(=O)CN2C(=O)S/C(=C\c3ccc(OCC(=O)O)c(Br)c3)C2=O)cc1`, the “hERG current change (%, negative = inhibition) at 1uM” value is listed as 16.7%.
`CC(/C=C/c1ccccc1)=N/NC(=O)CCC(=O)Nc1ccccc1C`: the “hERG current change (%, negative = inhibition) at 1uM” value is 14.9%.
The same measure for `CC(Cc1ccccc1)C(=O)Nc1ccc(Br)cc1` (centres unmarked): 7.89%.

(Values after publication PMC4336329 (PLoS ONE, 2015).)
